PubChem BioAssay (NCI)
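Test compounds were applied to cells in 96-well plates for 48 hours at 5 doses. GI50 marks 50% less growth.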 Not every entry of the source has a single result; some have several. The list is limited to them. An entry can have further records. For some assays here: The tests behind the records often covered other concentration ranges, not given here; some values may only mark the edge of a range. Brackets tell where a record comes from. Letters count within one entry. For some assays here: Results that share an entry repeat one measurement in other runs, samples, wells, individuals or studies.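 TGI is the concentration that stops growth completely.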

Legend:
Assay in all cases: DTP human tumour cell line panel, 48 h
MALME-3M melanoma = system: MALME-3M melanoma
NCI/ADR-RES ovarian = system: NCI/ADR-RES ovarian
HT29 colon = system: HT29 colon
U251 CNS = system: U251 CNS
HCC-2998 colon = system: HCC-2998 colon
UACC-257 melanoma = system: UACC-257 melanoma
K-562 leukemia = system: K-562 leukemia
OVCAR-3 ovarian = system: OVCAR-3 ovarian
MOLT-4 leukemia = system: MOLT-4 leukemia
LOX IMVI melanoma = system: LOX IMVI melanoma
HCT-116 colon = system: HCT-116 colon
SR leukemia = system: SR leukemia
SK-MEL-28 melanoma = system: SK-MEL-28 melanoma
RPMI-8226 leukemia = system: RPMI-8226 leukemia
OVCAR-4 ovarian = system: OVCAR-4 ovarian
CCRF-CEM leukemia = system: CCRF-CEM leukemia
RXF 393 renal = system: RXF 393 renal
SF-539 CNS = system: SF-539 CNS
UO-31 renal = system: UO-31 renal
NCI-H460 lung = system: NCI-H460 lung
EKVX NSCLC = system: EKVX NSCLC
OVCAR-8 ovarian = system: OVCAR-8 ovarian
SW-620 colon = system: SW-620 colon
SF-268 CNS = system: SF-268 CNS
CAKI-1 renal = system: CAKI-1 renal
NCI-H226 lung = system: NCI-H226 lung

O=[N+]([O-])c1ccc(N=Nc2c(O)ccc3ccccc23)cc1
GI50 (MALME-3M melanoma): 42.8 µM [sample A, 1 test] and 18.6 nM [sample B, 1 test] | TGI (MALME-3M melanoma): > 100 µM [sample A, 1 test] and 49 nM [sample B, 1 test] | GI50 (NCI/ADR-RES ovarian): 89.7 µM [sample A, 1 test] and 159 nM [sample B, 1 test] | TGI (NCI/ADR-RES ovarian): > 100 µM [sample A, 1 test] and 647 nM [sample B, 1 test]

Nc1cc(-c2cccc(OC(F)(F)F)c2)nc2ccc(N3CCCC3)cc12
TGI (HT29 colon): 4.11 µM [sample A, mean of 2 tests] and > 100 µM [sample B, 1 test] | TGI (MALME-3M melanoma): 3.32 µM [sample A, 1 test] and 21.6 µM [sample B, mean of 2 tests] and > 100 µM [sample C, 1 test] | TGI (U251 CNS): 5.79 µM [sample A, mean of 2 tests] and > 100 µM [sample B, mean of 2 tests] and > 100 µM [sample C, mean of 2 tests] | TGI (HCC-2998 colon): 1.67 µM [sample A, mean of 2 tests] and 2.38 µM [sample B, mean of 2 tests] and > 100 µM [sample C, mean of 2 tests] | GI50 (UACC-257 melanoma): 1.46 µM [sample A, mean of 2 tests] and 11.4 µM [sample B, mean of 2 tests] and > 52.3 µM [sample C, mean of 2 tests] | TGI (UACC-257 melanoma): 4.41 µM [sample A, mean of 2 tests] and > 67.7 µM [sample B, mean of 2 tests] and > 100 µM [sample C, mean of 2 tests] | TGI (K-562 leukemia): 3.47 µM [sample A, mean of 2 tests] and > 100 µM [sample B, mean of 2 tests] and 12 µM [sample C, mean of 2 tests] | TGI (OVCAR-3 ovarian): 3.94 µM [sample A, mean of 2 tests] and > 41.2 µM [sample B, mean of 2 tests] and > 60.2 µM [sample C, mean of 2 tests] | TGI (MOLT-4 leukemia): 5.79 µM [sample A, mean of 2 tests] and > 100 µM [sample B, mean of 2 tests] and 25.6 µM [sample C, mean of 2 tests] | TGI (LOX IMVI melanoma): 1.86 µM [sample A, mean of 2 tests] and > 34.4 µM [sample B, mean of 2 tests] and > 100 µM [sample C, mean of 2 tests] | TGI (HCT-116 colon): 1.99 µM [sample A, mean of 2 tests] and > 40.5 µM [sample B, mean of 2 tests] and 24.8 µM [sample C, mean of 2 tests] | TGI (SR leukemia): > 100 µM [sample A, 1 test] and 1.16 µM [sample B, 1 test] and 1.23 µM [sample C, mean of 2 tests] | TGI (SK-MEL-28 melanoma): 3.76 µM [sample A, mean of 2 tests] and 21.6 µM [sample B, 1 test] and 50.8 µM [sample C, 1 test]

CN(C)C1CCN(C(=O)c2ccc(NC(=O)Nc3ccc(-c4nc(N5CCOCC5)nc(N5CCOCC5)n4)cc3)cc2)CC1
TGI (RPMI-8226 leukemia): > 100 µM [sample A, 1 test] and 2.5 µM, 2.16 µM [sample B, 1 test] | TGI (OVCAR-4 ovarian): 27.7 nM [sample A, 1 test] and 155 nM, 322 nM [sample B, 1 test] | TGI (K-562 leukemia): > 100 µM [sample A, 1 test] and 2.5 µM, > 10 µM [sample B, 1 test] | TGI (CCRF-CEM leukemia): > 100 µM [sample A, mean of 2 tests] and 2.5 µM, > 10 µM [sample B, 1 test] | TGI (RXF 393 renal): 230 nM [sample A, mean of 2 tests] and 618 nM, 2.52 µM [sample B, 1 test] | TGI (MOLT-4 leukemia): > 100 µM [sample A, mean of 2 tests] and 2.5 µM, > 10 µM [sample B, 1 test] | TGI (LOX IMVI melanoma): > 100 µM [sample A, 1 test] and 403 nM, 1.15 µM [sample B, 1 test] | TGI (SF-539 CNS): 62.8 nM [sample A, mean of 2 tests] and 95.7 nM, 666 nM [sample B, 1 test] | GI50 (UO-31 renal): 2.32 µM [sample A, 1 test] and 908 nM, 169 nM [sample B, 1 test] | TGI (UO-31 renal): > 100 µM [sample A, 1 test] and 2.5 µM, 6.16 µM [sample B, 1 test] | TGI (NCI-H460 lung): > 100 µM [sample A, mean of 2 tests] and 2.5 µM, 3.32 µM [sample B, 1 test] | TGI (EKVX NSCLC): 166 nM [sample A, mean of 2 tests] and 2.5 µM, 1.24 µM [sample B, 1 test] | TGI (OVCAR-8 ovarian): 578 nM [sample A, 1 test] and 1.26 µM, 7.59 µM [sample B, 1 test] | TGI (SW-620 colon): > 100 µM [sample A, mean of 2 tests] and 2.5 µM, 4.19 µM [sample B, 1 test] | TGI (SF-268 CNS): > 37.1 µM [sample A, mean of 2 tests] and 2.5 µM, 4.79 µM [sample B, 1 test] | TGI (SR leukemia): > 100 µM [sample A, 1 test] and 2.5 µM [sample B, 1 test] | TGI (CAKI-1 renal): > 100 µM [sample A, mean of 2 tests] and 2.5 µM, 4.73 µM [sample B, 1 test] | GI50 (NCI-H226 lung): 18.5 nM [sample A, mean of 2 tests] and 149 nM, 12.1 nM [sample B, 1 test]
